Laboratory results taken from PubChem BioAssay (Tox21).
Values joined by “and” are separate entries in the source; they are usually repeats but may differ in a detail not shown here. Equal values may be shown once. The shares of active, inactive and inconclusive entries below differ from those in the screen. Potencies of inconclusive entries are doubtful fits and often do not repeat. The source holds several records for some structures; these can differ, active in one and inactive in another. Active and inactive are the calls of the source. Calls come from the whole dose curve; as a rule, active = well fitted curve in the direction sought with a large enough effect in the repeat runs; inconclusive = weak or mixed curves; inactive = no such curve, though single readings can be large; an effect the other way counts as inactive or inconclusive.

Tested on: not listed separately
Assay: qHTS assay to identify small molecule antagonists of the estrogen related receptor (ERR) signaling pathway from Tox21 library - cell viability counter screen (AID 1224834); note: nearly all actives have a fitted effect of over 30% in size
Conditions: ERR reporter cells viability, CellTiter-Fluor, 17.5 h; series mostly up to 92.4 µM
Procedure, shortened: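 Fluorescence from CellTiter-Fluor gives the viability read-out, taken 30 min after reagent addition. Before that, ERR cells seeded 6 h earlier were incubated with compounds for 17.5 h at 37 C.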
Potency is the fitted concentration of half-maximal effect; tags give direction and shape of the fitted curve.

Structure (SMILES)	Potency
C[C@]12C=CC(=O)C=C1CC[C@@H]1[C@@H]2[C@@H](O)C[C@@]2(C)[C@H]1CC[C@]2(O)C(=O)CO	inactive
C[C@]12CC[C@@H]3c4ccc(O)cc4CC[C@H]3[C@@H]1CC[C@@H]2OC(=O)CCC1CCCC1	active: 61.1 µM
CCc1cc(Cc2cc(CC)c(N)c(CC)c2)cc(CC)c1N	inconclusive: 54.5 µM [cytotoxic, partial curve]
CCC(C)(C)c1ccc(CC(C)CN2C[C@@H](C)O[C@@H](C)C2)cc1 (stereo not given in full)	inconclusive: 29.8 µM [cytotoxic, partial curve, poor fit]
CC(O)(c1ccc(Cl)cc1)c1ccc(Cl)cc1	active: 61.1 µM
Oc1c(Cl)cc(Cl)c2cccnc12	active: 13.3 µM
Cc1ccc(-n2[nH]c(C)c(N=Nc3cccc(-c4cccc(C(=O)O)c4)c3O)c2=O)cc1C	active: 29.8 µM
CCOC(=O)[C@H](CCc1ccccc1)N[C@@H](C)C(=O)N1Cc2ccccc2C[C@H]1C(=O)O	inconclusive: 61.6 µM [cytotoxic]
S=C(NC1CCCCC1)NC1CCCCC1	inconclusive: 19 µM [cytotoxic, full curve] and active: 13.7 µM
COC(=O)C1=C(C)NC(C)=C(C(=O)OC)C1c1ccccc1[N+](=O)[O-]	active: 54.5 µM
COc1ccc(CN2CCN(C(c3ccc(F)cc3)c3ccc(F)cc3)CC2)c(OC)c1OC	active: 13.3 µM
CCCCCCCCn1sc(Cl)c(Cl)c1=O	inconclusive: 68.6 µM [cytotoxic, single point]
COc1cc([C@@H]2c3cc4c(cc3[C@@H](O[C@@H]3O[C@@H]5CO[C@@H](C)O[C@H]5[C@H](O)[C@H]3O)[C@H]3COC(=O)[C@H]23)OCO4)cc(OC)c1O	inconclusive: 60.4 µM [cytotoxic, single point]
O=c1cc(-c2ccccc2)oc2ccccc12	inconclusive: 48.3 µM [cytotoxic]
CCCCCCCCCCCCc1ccccc1O	inconclusive: 67.7 µM [cytotoxic, single point] and active: 43.3 µM
CC[C@]1(O)C[C@H]2CN(CCc3c([nH]c4ccccc34)[C@@](C(=O)OC)(c3cc4c(cc3OC)N(C=O)[C@H]3[C@@](O)(C(=O)OC)[C@H](OC(C)=O)[C@]5(CC)C=CCN6CC[C@]43[C@@H]65)C2)C1	inconclusive: 0.0298 µM [cytotoxic, full curve]
ClC1=C(Cl)C(Cl)(Cl)C(Cl)=C1Cl	inactive
Cc1c2ccccc2c(C)c2c1ccc1ccccc12	active: 27 µM and active: 54.5 µM

Molecular target: Luciferin 4-monooxygenase (Photinus pyralis) (UniProt P08659)
UniProt P08659, sequence (P08659 whole entry, looked up): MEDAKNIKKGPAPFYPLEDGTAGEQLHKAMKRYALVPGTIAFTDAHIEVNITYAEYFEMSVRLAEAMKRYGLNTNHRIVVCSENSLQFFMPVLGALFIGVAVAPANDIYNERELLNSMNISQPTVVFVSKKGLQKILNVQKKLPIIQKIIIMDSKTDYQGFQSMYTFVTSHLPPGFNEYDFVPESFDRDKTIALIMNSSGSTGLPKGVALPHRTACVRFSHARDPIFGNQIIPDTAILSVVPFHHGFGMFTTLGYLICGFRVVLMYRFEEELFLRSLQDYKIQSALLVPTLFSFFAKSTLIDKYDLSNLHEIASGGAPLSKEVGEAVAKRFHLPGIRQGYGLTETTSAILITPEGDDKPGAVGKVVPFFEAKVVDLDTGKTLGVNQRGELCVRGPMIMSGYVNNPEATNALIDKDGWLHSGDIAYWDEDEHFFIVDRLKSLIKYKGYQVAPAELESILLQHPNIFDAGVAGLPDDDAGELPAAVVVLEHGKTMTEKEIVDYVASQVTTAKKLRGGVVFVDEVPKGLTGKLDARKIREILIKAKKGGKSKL
Assay: qHTS assay to identify small molecule inhibitors of firefly luciferase (AID 1224835); note: nearly all actives have a fitted effect of over 25% in size
Conditions: purified P. pyralis luciferase, luminescence inhibition; series mostly up to 115 µM
Procedure, shortened: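 Inhibition of purified Photinus luciferase is measured by luminescence. Substrate levels (D-luciferin, ATP) sit at their KM values. Each compound is tested in a concentration series.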

Structure (SMILES)	Potency
CC1=C(/C=C/C(C)=C/C=C/C(C)=C\C(=O)O)C(C)(C)CCC1	active: 63.5 µM
CCC(C)OC(=O)c1ccc(O)cc1 (stereo not given)	inconclusive: 56.7 µM [inhibitor, partial curve] and inconclusive: 71 µM [inhibitor, partial curve]
c1ccc2c(c1)-c1cccc3c1c-2cc1ccccc13	inconclusive: 3.48 µM [inhibitor, full curve]
CN(C)c1cccc(O)c1	inconclusive: 72.1 µM [inhibitor, partial curve]
Cc1oncc1C(=O)Nc1ccc(C(F)(F)F)cc1	inconclusive: 27.5 µM [inhibitor, partial curve]
c1ccc2n[nH]nc2c1	inactive
c1ccc(-c2ccc(C(c3ccccc3)n3ccnc3)cc2)cc1 (stereo not given)	inactive
COC(=O)C1=C(C)NC(C)=C(C(=O)OC)C1c1ccccc1[N+](=O)[O-]	active: 40 µM
CCCCCCCCCCCCCC[P+](CCCC)(CCCC)CCCC	inconclusive: 79.3 µM [inhibitor, single point] and inconclusive: 89.4 µM [inhibitor, single point]
O=c1cc(-c2ccccc2)oc2ccccc12	active: 7.97 µM and active: 12.6 µM

Tested on: not listed separately
Assay: qHTS assay to identify small molecule agonists of the constitutive androstane receptor (CAR) signaling pathway - cell viability counter screen (AID 1224836); note: nearly all actives have a fitted effect of over 45% in size
Conditions: HepG2-CYP2B6-hCAR viability, CellTiter-Fluor, 23 h, PK11195 added to every well; series mostly up to 92.4 µM
Procedure, shortened: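 HepG2-CYP2B6-hCAR, 2500 cells/well, 4 h pre-incubation; cpd 15 conc + PK11195 0.75 uM final; 23 h, 37 C/5% CO2; CellTiter-Fluor, fluorescence.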

Structure (SMILES)	Potency
CCCCCCCCCCCCOC(=O)c1cc(O)c(O)c(O)c1	inconclusive: 48.6 µM [cytotoxic, partial curve, poor fit]
CCCCCCCCCCCCc1ccc(O)cc1	inconclusive: 68.6 µM [cytotoxic, single point]
Cc1cc(F)ccc1-c1cc(N2CC[C@@H](O)[C@H]2CO)ncc1N(C)C(=O)C(C)(C)c1cc(C(F)(F)F)cc(C(F)(F)F)c1	inconclusive: 60.2 µM [cytotoxic, single point]
[O-][n+]1ccccc1SSc1cccc[n+]1[O-]	active: 0.92 µM
CCN(CC)CCOc1ccc(/C(=C(\Cl)c2ccccc2)c2ccccc2)cc1	inconclusive: 44.2 µM [cytotoxic, partial curve] and inconclusive: 26.6 µM [cytotoxic, partial curve]
CC1CC(OC(=O)c2ccccc2O)CC(C)(C)C1 (stereo not given)	inactive
NC(N)=NC(N)=NCCc1ccccc1	inconclusive: 48.6 µM [cytotoxic, partial curve, poor fit] and inconclusive: 9.44 µM [cytotoxic, partial curve]
CCCCCCCC/C=C\CCCCCCCC(=O)N(CCO)CCO	inconclusive: 68.3 µM [cytotoxic, single point]
CCc1cc(SCc2sc(-c3ccc(C(F)(F)F)cc3)nc2CN2CCN(c3ccc(OC)cc3)CC2)ccc1OCC(=O)O	inactive
O=C(OCC1CCC2OC2C1)C1CCC2OC2C1 (stereo not given)	inactive
S=C(NC1CCCCC1)NC1CCCCC1	inconclusive: 10.9 µM [cytotoxic, full curve]
COC(=O)C1=C(C)NC(C)=C(C(=O)OC)C1c1ccccc1[N+](=O)[O-]	inconclusive: 48.6 µM [cytotoxic, partial curve]
COc1ccc(CN2CCN(C(c3ccc(F)cc3)c3ccc(F)cc3)CC2)c(OC)c1OC	inconclusive: 26.6 µM [cytotoxic, single point]
CCCCCCCCCCCCc1ccccc1O	inconclusive: 68.6 µM [cytotoxic, single point]
CCCCCCCCCCCC(=O)NCCCN(C)C	active: 61.1 µM
CC[C@]1(O)C[C@H]2CN(CCc3c([nH]c4ccccc34)[C@@](C(=O)OC)(c3cc4c(cc3OC)N(C=O)[C@H]3[C@@](O)(C(=O)OC)[C@H](OC(C)=O)[C@]5(CC)C=CCN6CC[C@]43[C@@H]65)C2)C1	inconclusive: 0.75 µM [cytotoxic, full curve]
Cc1cc(Cc2cc(C)cc(C(C)(C)C)c2O)c(O)c(C(C)(C)C)c1	inconclusive: 68.6 µM [cytotoxic, single point]
